Source: PMC6212790
The other results are listed elsewhere or left out. At the low end of the ranking the order means little.

The sequences below were run against T1, GST-Rok (full length) (UniProt O34857) (assay: protein binding microarray). Conditions: Rok is a gene silencer of Bacillus subtilis; high values mean tight binding; most listed sequences are background and not binding sites; double strand, one strand shown.
T1 sequence: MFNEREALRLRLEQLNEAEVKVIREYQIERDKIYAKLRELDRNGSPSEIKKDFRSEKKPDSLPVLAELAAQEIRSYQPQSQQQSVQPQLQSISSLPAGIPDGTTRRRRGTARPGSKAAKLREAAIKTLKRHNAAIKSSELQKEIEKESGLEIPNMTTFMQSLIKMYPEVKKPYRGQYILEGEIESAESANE
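Further: rank score from −0.5 (least bound) to 0.5 (best bound).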

Sequence	binding signal
ATTTTTAG	0.248 E-score
AGAGCGAA	-0.177 E-score
CCCATATC	-0.0938 E-score
CGCGTAGC	-0.0598 E-score
ATATTAAA	0.377 E-score
CAATGGCA	-0.0269 E-score
ATGACAGA	-0.183 E-score
AGTAACCC	-0.217 E-score
CCTTGTCA	-0.157 E-score
AGTTAAAT	0.317 E-score
CCCCCACC	-0.461 E-score
ATTTGCGG	0.0715 E-score
GACTGACA	-0.127 E-score
CCTTGGCC	-0.283 E-score
ACAATTAG	0.193 E-score
TAAGGGTA	0.0981 E-score
GAGACGTA	-0.2 E-score
CCGAAAGG	-0.324 E-score
GTGTCGTA	0.0847 E-score
TATGGTAA	0.23 E-score
ATCGAACC	0.0368 E-score
CTAATTGC	0.107 E-score
AGACGCTG	-0.151 E-score
CTAAGAGC	-0.28 E-score
CGCGGCCC	-0.434 E-score

Sequence	binding signal
AACGCAAG	0.0979 E-score
ATTCACAG	0.0727 E-score
GTCCCGCA	-0.196 E-score
AGACTGAA	0.0238 E-score
CATGTGGC	-0.127 E-score
GGAGGGCC	-0.442 E-score
CAATTGCA	-0.0876 E-score
AGTTTTCG	0.0505 E-score
CCGCCGCC	-0.294 E-score
CGGTATCA	0.193 E-score
AGTGGTGC	-0.0666 E-score
GATTCGAC	-0.0211 E-score
GTTCCCTA	-0.17 E-score
ACAATGTG	0.156 E-score
ACGCACGT	-0.141 E-score
AACGGCGC	-0.0478 E-score
TAGCGGCA	0.172 E-score
AAGATGAT	-0.00922 E-score
ACTTCTAC	0.286 E-score
CAAATGGC	0.0767 E-score
AAGTCTCG	-0.172 E-score
CACAATCG	-0.182 E-score
CACGAAGG	-0.164 E-score
CCTATCGC	-0.00357 E-score
ATTGTAGC	0.16 E-score

Sequence	binding signal
CCACTCCC	-0.201 E-score
ATATAGTG	0.274 E-score
AGACTAGC	0.0689 E-score
AGGGTCGG	-0.403 E-score
ACCTAGTG	0.0222 E-score
AAACTTAG	-0.0212 E-score
CACTCACA	-0.053 E-score
CCTGGTCG	-0.0911 E-score
CATTTTAA	0.0564 E-score
ACTGAAAA	0.0802 E-score
CCTGAGTA	0.0962 E-score
CGCTGTCC	-0.247 E-score
ACGAAGCT	-0.0248 E-score
AAGGCCTT	-0.239 E-score
GGTTAACA	0.231 E-score
AGCGTAAA	0.133 E-score
CGGGGGTC	-0.366 E-score
CCGGCGAC	-0.291 E-score
ATAGAGAT	0.0483 E-score
GATGCTCA	-0.15 E-score
CCGTTGGA	-0.325 E-score
CGACTCGC	-0.318 E-score
CCCAGGGG	-0.264 E-score
ACTTGTTG	0.108 E-score
CGGTTCGC	-0.0662 E-score

Sequence	binding signal
CATTAGCA	-0.0362 E-score
CCAATGCA	-0.0984 E-score
GAGTCGCC	-0.304 E-score
CTTGTTGC	-0.0303 E-score
GCGGTAAA	0.137 E-score
AACACTGC	0.103 E-score
ATCAGCAC	-0.092 E-score
ACACATTC	0.122 E-score
GTTTAAAA	-0.112 E-score
ACGGTAGC	0.139 E-score
CTGTCAGC	-0.305 E-score
ATGGGGGC	-0.349 E-score
AATAGAAC	0.0621 E-score
CGCTCAGC	-0.164 E-score
ACTATGCC	-0.0106 E-score
ACGCGACG	-0.0175 E-score
AGCTTAAC	-0.0992 E-score
ATGTCATC	-0.00388 E-score
ATCATACA	0.208 E-score
CTGTGTGA	0.103 E-score
CGAGCATC	-0.22 E-score
AGGTCTCG	-0.291 E-score
ATGCATAG	0.0635 E-score
ATCTAAAC	0.169 E-score
ACCGGGGG	-0.301 E-score

Sequence	binding signal
AGGATAGA	0.121 E-score
CACTCCTC	-0.238 E-score
GTCCATCA	-0.236 E-score
CCGCTGTC	-0.289 E-score
AGAGATGC	-0.0534 E-score
GATACACC	0.153 E-score
GCAAGAAA	-0.0705 E-score
TGGTTCAA	-0.109 E-score
GCGTCCCC	-0.232 E-score
GATAATAC	0.187 E-score
CCTCTTTA	-0.064 E-score
CTGCAGCC	-0.294 E-score
CAAACTGC	0.0339 E-score
GAGTTCAC	0.155 E-score
ATACCTAC	0.351 E-score
CTCTTTCC	-0.142 E-score
ACCCAGTG	-0.124 E-score
CGAAGCCC	-0.465 E-score
AGAGGAAG	-0.152 E-score
ATTAATCA	0.232 E-score
CCGCCGAC	-0.147 E-score
GGGATGAA	0.18 E-score
CAATCAGG	0.0817 E-score
ACAACCCC	-0.355 E-score
GAGTGGGC	-0.208 E-score

Sequence	binding signal
CGCGGGAG	-0.307 E-score
ATAATGGC	0.0668 E-score
GCGCGCCA	-0.24 E-score
ACTGTTGG	-0.000609 E-score
CCTGGCAC	-0.215 E-score
CTATTCGA	0.159 E-score
GCTGGACA	-0.201 E-score
GGTAGTTA	0.413 E-score
AGGTTGAA	-0.0674 E-score
GTCCCCAA	-0.293 E-score
ACCGCATG	-0.0876 E-score
AGGCCAGG	-0.275 E-score
AAAGCGTC	-0.215 E-score
GAGGGGCC	-0.375 E-score
CTTCGCCC	-0.255 E-score
CATAGCGG	-0.0781 E-score
CCGTAATA	0.302 E-score
GCCCAGTA	0.0314 E-score
GCAGATGC	-0.172 E-score
CGATCAAG	-0.189 E-score
AATATGCC	0.0218 E-score
CATCTGGG	-0.0953 E-score
AGAGCTGG	-0.116 E-score
CCTCGAGG	-0.194 E-score
GGAGTGCA	-0.164 E-score

Sequence	binding signal
CCGCCGGA	-0.153 E-score
AGCTTCAT	0.0351 E-score
CTGAGTCA	-0.22 E-score
ACGGCTTA	-0.0338 E-score
AGTTATGC	0.27 E-score
CATAGGAA	0.25 E-score
CACACGCA	-0.151 E-score
TCTCTTAA	-0.0839 E-score
CTCGTTAA	-0.0604 E-score
CAGCGGCG	-0.287 E-score
GGGGCCGA	-0.272 E-score
ACCCCTCG	-0.238 E-score
CCCCAAAG	-0.204 E-score
AGACATAC	0.125 E-score
GATCGGAA	-0.0506 E-score
ATCGAAAC	0.0448 E-score
CCGCAGCA	-0.21 E-score
GGTGCTAC	-0.0663 E-score
ATTCGAGC	-0.0666 E-score
TCTAGAAA	0.222 E-score
CAGCAAGA	-0.0272 E-score
AGACTCTA	0.0103 E-score
CCAGGTCG	-0.194 E-score
TACAAACA	0.369 E-score
GTGTGATA	-0.106 E-score

Sequence	binding signal
CAAGGGTA	-0.127 E-score
CGTAGTTA	0.127 E-score
TTATTGAA	-0.0458 E-score
CGGTAGCC	-0.179 E-score
ATCTGTCG	-0.0114 E-score
CCTTAGAG	-0.347 E-score
ATGTGTTA	0.0717 E-score
GCAGCAGA	-0.0341 E-score
AACTGGGG	-0.305 E-score
CCAATGCC	-0.232 E-score
GCTTGACC	-0.288 E-score
AAGCATAA	0.0528 E-score
TCCCGGAA	-0.271 E-score
GCATCGGA	-0.0958 E-score
GGGAATAC	-0.0105 E-score
GCGTGTCC	-0.226 E-score
CCTTGCCG	-0.231 E-score
CGGGCTCC	-0.311 E-score
ACTTGACG	0.0357 E-score
ATACGCAT	-0.0297 E-score
AGCGAAAG	-0.0813 E-score
AAAAGGTG	-0.164 E-score
TGTAAACA	0.0871 E-score
CGAAACGA	0.114 E-score
ATAATGAG	0.22 E-score

Sequence	binding signal
AAATCTAC	0.398 E-score
GCATGGAC	0.0483 E-score
AATTTGTG	0.14 E-score
CCTGACGC	-0.272 E-score
GTGTGACA	-0.105 E-score
CTAGCAAG	0.28 E-score
ACTGTAAT	0.275 E-score
GGAATCAC	0.0431 E-score
TGATGCCA	-0.222 E-score
ACCCGGAA	-0.115 E-score
AGAGACTG	-0.0188 E-score
CCGTTGGC	-0.284 E-score
GCGGAGTA	-0.00587 E-score
AAATCCCC	-0.221 E-score
CTGGCGCC	-0.309 E-score
CGGGATAC	0.119 E-score
TCCGACGA	0.0222 E-score
ATTGAATG	0.0431 E-score
ACCATGTG	-0.159 E-score
